Measurements from paper PMC10836093, “Ensemble-based design of tau to inhibit aggregation while preserving biological activity” (Research Square, 2024).
Values belong to the binder of their own block, whether it stands above or below them.

How the values were obtained:
[1] = target: the molecule itself; assay: ThT fluorescence aggregation assay; tauRD 5, 10, 20, 40 μM in 1X PBS, 10 mM DTT, induced with 2X heparin, 37 °C; self-assembly into fibrils, t1/2max from fitted curves; fibrils at endpoints seen by TEM
[2] = target: the molecule itself; assay: FRET or BRET; HEK293T cells stably expressing tauRD-mEOS3.2, seeded with sonicated heparin-induced 2N4R tau fibrils (lipofectamine), 48 h, photoconverted 20 min; FRET between green and red mEOS3.2 copies read by flow cytometry as percent FRET-positive cells
[3] = target: tubulin dimer (UniProt P02550); assay: cell-based or functional assay

B1: P301S Turn mutant tauRD (domain or fragment)
chain: not shown
notes: tau repeat domain, human MAPT, 4R tauRD […] on 2N4R tau, with P301S, V300Q and S305K; without tags; also called P301S tauRD Turn mutant; source: E. coli BL21-Gold (DE3), purified (boiling, HiTrap SP, Superdex 75)
t1/2max of ThT aggregation at 5 μM [1]: 97.7 ± 31.7 h | t1/2max of ThT aggregation at 40 μM [1]: 26.7 ± 2.9 h

B2: P301S_V300Q tauRD-mEOS3.2 (domain or fragment)
chain: not shown
notes: not shown: mEOS3.2, C-terminal, kept
fold reduction of FRET-positive cells against P301S tauRD-mEOS3.2 [2]: 1.2 fold

B3: P301S Full mutant tauRD-mEOS3.2 (domain or fragment)
chain: not shown
notes: as for B2
fold reduction of FRET-positive cells against P301S tauRD-mEOS3.2 [2]: 2 fold

B4: P301S_S305K tauRD-mEOS3.2 (domain or fragment)
chain: not shown
notes: as for B2
fold reduction of FRET-positive cells against P301S tauRD-mEOS3.2 [2]: 1.2 fold

microtubule polymerization assay, polymerization amplitude (endpoint intensity), fold reduction relative to WT tauRD [3]: ~10 fold
B5: P301S tauRD (domain or fragment)
chain: not shown
notes: tau repeat domain, human MAPT, 4R tauRD […] on 2N4R tau, with the FTD-linked P301S mutation; without tags; source: E. coli BL21-Gold (DE3), purified (boiling, HiTrap SP, Superdex 75)
t1/2max of ThT aggregation at 5 μM [1]: 52.4 ± 29.2 h | t1/2max of ThT aggregation at 40 μM [1]: 17.9 ± 5.4 h

B6: P301S Full mutant tauRD (domain or fragment)
chain: not shown
notes: tau repeat domain, human MAPT, 4R tauRD […] on 2N4R tau, with P301S, D295E, I297L, V300Q and S305K; without tags; source: E. coli BL21-Gold (DE3), purified (boiling, HiTrap SP, Superdex 75)
t1/2max of ThT aggregation at 40 μM [1]: 55.6 ± 24.5 h

B7: P301S Turn mutant tauRD-mEOS3.2 (domain or fragment)
chain: not shown
notes: as for B2
fold reduction of FRET-positive cells against P301S tauRD-mEOS3.2 [2]: ~2 fold
